Results as given in PubChem BioAssay AID1814 (Broad Institute, 2009).
Hit rate of the full screen: of about 300,000 compounds, about 22,000 (7.3%) were called active. The inconclusive results got no clear call from the source; some entries with a clear call stand among them for comparison. No stated cut-off is given here; in the data, active means activity score below about -60%; inconclusive means mostly about -28% to -61%; inactive means positive scores.

Experiment: Activators via SNCA 5'UTR binding, MLPCN (AID 1814)
Conditions: alpha-synuclein 5'UTR reporter, activators screen; hits give low values; tested at 7.5 µM

Q: For `COC(=O)CC1=C(C(=O)OC)C(c2ccc3c(c2Cl)OCO3)C(C#N)=C(N)O1` (stereo not drawn), which activity score is on record?
A: inconclusive: -29.7%

Q: For `O=C(NC(=S)Nc1nc2ccccc2s1)c1ccco1`, which activity score is on record?
A: inconclusive: -55.5%

Q: Which activity score does the source give for `Cc1cc(C(C#N)c2ccc(Cl)cc2)c(Cl)cc1NC(=O)c1cc(I)cc(I)c1O` (stereo not drawn) here?
A: inconclusive: -29%

Q: For `Cc1ccc(/C(N)=N/OC(=O)c2ccco2)cc1`, which activity score is on record?
A: inconclusive: -39.7%

Q: For `Cc1ccc(CSc2nc3ccncc3[nH]2)cc1`, which activity score is on record?
A: inactive: 72.5%

Q: Which activity score does the source give for `Cc1ccc2oc(/N=C(\N)NC(=O)C(C)(C)C)nc2c1` here?
A: inactive: 96.1%

Q: Which activity score does the source give for `Cc1ccc(-n2c(C)cc(C(=O)COc3cccnc3[N+](=O)[O-])c2C)cc1` here?
A: inactive: 64.1%

Q: Which activity score does the source give for `CCc1ccc(N2C(=O)c3ccc4c5c(ccc(c35)C2=O)CC4)cc1` here?
A: inconclusive: -46.6%

Q: For `CC(=O)Nc1ccc2c(c1)CCc1ccccc1-2`, which activity score is on record?
A: inconclusive: -60.2%

Q: For `COc1ccc2[nH]c3c(=S)nc[nH]c3c2c1`, which activity score is on record?
A: inconclusive: -50.6%

Q: Which activity score does the source give for `CCCn1nnc(NC(=O)c2ccccc2Cl)n1` here?
A: inconclusive: -58.8%

Q: For `Clc1cccc(CSc2nc3ccncc3[nH]2)c1`, which activity score is on record?
A: inconclusive: -61.3%

Q: Which activity score does the source give for `COCCCNC(=O)/C=C/c1c(Cl)cccc1Cl` here?
A: inconclusive: -40%

Q: With `Cc1cc(C)n(-c2ccc(C(=O)Nc3nnc(C)s3)cc2)n1` as the compound, how does the activity score read?
A: inconclusive: -49.8%

Q: Which activity score does the source give for `Cc1ccc(NC(=O)Cn2cccc2)cc1` here?
A: inconclusive: -43.1%

Q: With `CCCCCCCCCC[n+]1cccc2c3ccccc3ccc21` as the compound, how does the activity score read?
A: inconclusive: -37.4%

Q: With `CC1CCc2c(sc(NC(=O)C3CCCO3)c2C#N)C1` (stereo not drawn) as the compound, how does the activity score read?
A: active: -114%

Q: With `O=C(Nc1ccc(Cl)cn1)c1ccc2c(Cl)c3c(nc2c1)CCC3` as the compound, how does the activity score read?
A: inconclusive: -49.7%

Q: For `Cc1ccc(S(=O)(=O)NCC(=O)OCc2csc(-c3ccccc3)n2)cc1`, which activity score is on record?
A: inconclusive: -44.3%

Q: Which activity score does the source give for `CNC(=O)c1ccc(-c2ccc(F)cc2)s1` here?
A: active: -101%

Q: Which activity score does the source give for `CN(C)CCNC(=O)c1onc(CSc2ccc(F)c(F)c2)c1C(=O)NCCN(C)C` here?
A: inconclusive: -39%

Q: Which activity score does the source give for `COc1cc(Br)cc(/C=N/NC(=O)Cc2ccc(C(F)(F)F)cc2[N+](=O)[O-])c1O` here?
A: inactive: 67.5%

Q: With `CCCc1cc2c(=O)c(-c3ccccn3)c(C)oc2cc1O` as the compound, how does the activity score read?
A: inconclusive: -50.3%

Q: With `NC(=O)NC(=O)COC(=O)c1ccc2noc(-c3ccccc3)c2c1` as the compound, how does the activity score read?
A: inconclusive: -47.6%

Q: Which activity score does the source give for `O=[N+]([O-])c1ccc(NC(=S)NCCc2ccc(F)cc2)cc1` here?
A: inconclusive: -60.5%

Q: Which activity score does the source give for `Cc1cc(O)c(C)c(O)c1/C=N/NC(=O)c1cccnc1` here?
A: inactive: 68.5%

Q: With `COc1ccc(OC)c(C2C(C(=O)c3cccs3)=C(O)C(=O)N2c2cc(C)on2)c1` (stereo not drawn) as the compound, how does the activity score read?
A: inconclusive: -49.1%

Q: For `Oc1c(N=NC(=S)Nc2ccccc2F)c2ccccc2n1Cc1ccccc1Cl`, which activity score is on record?
A: inactive: 86.8%

Q: For `c1ccc(Nc2nnc(-c3cccc4ccccc34)o2)cc1`, which activity score is on record?
A: active: -92.8%

Q: For `CCc1nnc(NC(=O)c2ccc(N(C)S(=O)(=O)c3ccccc3)cc2)s1`, which activity score is on record?
A: active: -129%

Q: With `CCn1ccnc1CNC(=O)CC1C(=O)NCCN1CCCc1ccccc1` (stereo not drawn) as the compound, how does the activity score read?
A: inconclusive: -45.2%

Q: Which activity score does the source give for `CC(C)CC(NC(=O)CCl)c1ccccc1` (stereo not drawn) here?
A: inconclusive: -49.1%

Q: With `CCOc1cc(/C=C2/NC(=S)NC2=O)ccc1OCc1ccc([N+](=O)[O-])cc1` as the compound, how does the activity score read?
A: inactive: 61.6%

Q: Which activity score does the source give for `CCCCN(C(=O)Cc1ccc(S(=O)(=O)N2CCOCC2)s1)c1ccccc1` here?
A: inconclusive: -76%

Q: With `[O-][n+]1c2ccccc2c2n1CCN=C2c1ccc(Cl)cc1` as the compound, how does the activity score read?
A: inconclusive: -54.6%

Q: For `Cc1cc2[nH]c(=O)c(=O)[nH]c2cc1S(=O)(=O)N1CCC(C)CC1`, which activity score is on record?
A: inconclusive: -28.6%

Q: With `COc1ccc(/C=N/NC(=O)c2ccncc2)cc1COc1ccc(NC(C)=O)cc1` as the compound, how does the activity score read?
A: inactive: 80%

Q: With `Cc1ccc(C(=O)c2c3ccc([N+](=O)[O-])cc3[n+]([O-])n2CCCN)cc1` as the compound, how does the activity score read?
A: inactive: 63.3%

Q: Which activity score does the source give for `O=C(Nc1ccccc1)c1cc2ccccc2[nH]1` here?
A: active: -180%

Q: Which activity score does the source give for `COc1ccc(CN(C(=O)CSc2nnc(-c3c[nH]c4ccccc34)o2)c2ccc(F)cc2)cc1OC` here?
A: inconclusive: -43.4%

Q: For `CCCC(=O)Nc1cnc(NC(=O)c2cccc(F)c2)cc1C`, which activity score is on record?
A: inconclusive: -52.2%

Q: With `CCc1n[nH]c(=S)n1/N=C/c1c(C)nn(-c2ccccc2)c1Cl` as the compound, how does the activity score read?
A: inactive: 106%

Q: With `CC(C)=CCOc1ccc2ccc(=O)oc2c1` as the compound, how does the activity score read?
A: inconclusive: -57.4%

Q: With `O=C(/C=C/c1cccc([N+](=O)[O-])c1)c1ccc([N+](=O)[O-])o1` as the compound, how does the activity score read?
A: inactive: 70.6%

Q: Which activity score does the source give for `COC(=O)c1c(-c2ccccc2)c[nH]c1C` here?
A: inconclusive: -55.7%

Q: Which activity score does the source give for `CSc1nc(N(C)NC(=O)c2ccc(Cl)cc2)c2ccccc2n1` here?
A: inactive: 92.6%

Q: For `COc1ccc(CNc2ccc(C)cc2)cc1Br`, which activity score is on record?
A: inconclusive: -29.9%

Q: Which activity score does the source give for `CCOc1ccc(NC(=O)c2ccc(NC(=O)c3cn4c5c(c(N6CCN(C)CC6)c(F)cc5c3=O)OCC4C)cc2)cc1` (stereo not drawn) here?
A: inconclusive: -49%

Q: With `O=C(/C=C/c1cccc([N+](=O)[O-])c1)c1ccco1` as the compound, how does the activity score read?
A: inconclusive: -54.8%

Q: For `Cc1ccc2nc(-c3ccc4c(c3)OCCO4)cn2c1`, which activity score is on record?
A: inactive: 110%

Q: With `Cc1cccc(C(=O)n2c(=S)nc3cc(C)ccn32)c1` as the compound, how does the activity score read?
A: inconclusive: -59.7%

Q: With `CCOC(=O)c1nn(-c2ccccc2)cc1O` as the compound, how does the activity score read?
A: inconclusive: -60.2%

Q: Which activity score does the source give for `Cc1ccc([N+](=O)[O-])cc1NC(=O)c1ccoc1C` here?
A: inconclusive: -48.3%

Q: Which activity score does the source give for `Cc1occc1C(=O)N=Nc1c(O)[nH]c2ccc(Br)cc12` here?
A: active: -237%

Q: Which activity score does the source give for `O=c1[nH][nH]c(-c2ccccc2O)c1C(C[N+](=O)[O-])c1ccc(Cl)cc1Cl` (stereo not drawn) here?
A: active: -83.3%

Q: For `COc1ccc(CN(C)CC(=O)Nc2ccccc2-c2ccccc2)c(OC)c1`, which activity score is on record?
A: inactive: 46.2%

Q: With `Cc1ccc(/C=N/Nc2ccccn2)s1` as the compound, how does the activity score read?
A: active: -149%

Q: Which activity score does the source give for `C/C(=N\NC(=O)Cc1ccc(Cl)cc1)c1ccccn1` here?
A: inactive: 85.6%

Q: With `Cc1ccccc1C(=O)Nc1ccc(N2CCCCCC2)cc1` as the compound, how does the activity score read?
A: active: -160%

Q: With `CC(=O)N1c2ccccc2Oc2cc3ccccc3cc21` as the compound, how does the activity score read?
A: inconclusive: -61.3%

Q: With `COc1cccc(-c2nc(-c3ccccn3)no2)c1` as the compound, how does the activity score read?
A: inactive: 104%

Q: With `CSC1=NC(C)(C)CC2(C)Nc3ccccc3N12` (stereo not drawn) as the compound, how does the activity score read?
A: active: -87.8%

Q: Which activity score does the source give for `COc1ccc(-c2nsc3c(N4CCCCC4C)ncnc23)cc1` (stereo not drawn) here?
A: inactive: 89.8%

Q: For `CSc1ccccc1NC(=S)Nc1cccc(C(F)(F)F)c1`, which activity score is on record?
A: active: -63.5%

Q: With `COc1ccccc1NC(=O)CSc1nc(SC)ns1` as the compound, how does the activity score read?
A: inconclusive: -51.6%

Q: With `O=C(O)/C=C/C(=O)Nc1ccc(Oc2ccccc2)cc1` as the compound, how does the activity score read?
A: inconclusive: -40%

Q: With `C=CCNc1ncnc2c1cnn2-c1ccc(Cl)cc1` as the compound, how does the activity score read?
A: inconclusive: -58.2%

Q: Which activity score does the source give for `S=C(Nc1ccccc1)Nc1nc2ccccc2n1CCOc1ccc(Br)cc1` here?
A: inconclusive: -44.1%

Q: Which activity score does the source give for `COc1ccc(C(=O)/C=C/c2cccs2)c(OC(=O)c2cccc([N+](=O)[O-])c2)c1` here?
A: active: -366%

Q: Which activity score does the source give for `Cc1cccc(NC(=O)c2oc3c(c2C)C(=O)CC(C)(C)C3)n1` here?
A: active: -82.7%

Q: With `C=C[C@@]1(C)CC(=O)[C@]2(O)[C@@]3(C)[C@@H](O)CCC(C)(C)[C@@H]3[C@H](OC(C)=O)[C@H](O)[C@@]2(C)O1` as the compound, how does the activity score read?
A: inactive: 66.4%

Q: With `COc1ccc(-c2cn3cc(C)ccc3n2)cc1F` as the compound, how does the activity score read?
A: inactive: 77.5%

Q: For `Cc1ccc(Nc2nc(-c3cccnc3)cs2)cc1C`, which activity score is on record?
A: inconclusive: -51.4%

Q: For `CSc1nc(C)cc(-n2ccc(=O)[nH]c2=O)n1`, which activity score is on record?
A: inconclusive: -55.4%

Q: For `O=C(NC(=S)NCc1ccc(-c2nc3ccccc3s2)cc1)c1ccco1`, which activity score is on record?
A: inconclusive: -53.3%

Q: Which activity score does the source give for `O=C(O)c1cnc(-c2ccccc2)nc1Sc1cccc(Cl)c1` here?
A: inconclusive: -55.5%

Q: With `Cc1cc2[nH]c(=O)cc(-c3ccccc3)n2n1` as the compound, how does the activity score read?
A: inconclusive: -60.7%

Q: Which activity score does the source give for `Cc1cc(C(=O)COC(=O)c2ccccc2O)c(C)n1Cc1cccs1` here?
A: inactive: 92.7%

Q: With `CC(=O)c1c(C)[nH]c(C(=O)CSc2nnc(-c3ccco3)o2)c1C` as the compound, how does the activity score read?
A: inconclusive: -55.3%

Q: With `O=[N+]([O-])c1ccc2nc(-c3ccccc3)n(OCc3ccc(Cl)cc3)c2c1` as the compound, how does the activity score read?
A: active: -86.5%

Q: With `CN1CCN(C2=C(Cl)C(=O)C(c3cnc(N4CCCCC4)s3)=C(Cl)C2=O)CC1` as the compound, how does the activity score read?
A: inconclusive: -51%

Q: Which activity score does the source give for `O=C(/C=C/c1ccccc1)NC(=S)Nc1ccc2c3c(cccc13)CC2` here?
A: inconclusive: -38.1%

Q: Which activity score does the source give for `Cc1cccc(NC(=O)COc2ccc3oc4c(c3c2)CCCC4)n1` here?
A: inconclusive: -51.5%

Q: With `COC(=O)c1cccc(NC(=S)NCc2ccco2)c1` as the compound, how does the activity score read?
A: inconclusive: -58.5%

Q: For `COc1ccccc1OCCSc1nnnn1-c1ccc(C)cc1`, which activity score is on record?
A: inconclusive: -61.3%

Q: Which activity score does the source give for `Cc1ccc(/C=N/Nc2nnc(Cl)c3ccccc23)cc1` here?
A: active: -157%

Q: For `O=C(COC(=O)CCN1C(=O)/C(=C\C=C\c2ccccc2)SC1=S)Nc1cc(F)ccc1F`, which activity score is on record?
A: inactive: 64.2%

Q: With `COc1ccccc1CN1CC(C(=O)N2CCC(C(=O)c3ccccc3)CC2)CCC1=O` (stereo not drawn) as the compound, how does the activity score read?
A: inconclusive: -41.7%

Q: With `Cc1ccc(CN2CCSCC2)c(C)c1` as the compound, how does the activity score read?
A: inconclusive: -31.4%

Q: For `Cc1cc(C)c(C#N)c(SCC(=O)C2CC2)n1`, which activity score is on record?
A: inconclusive: -57.8%

Q: For `CCOC(=O)c1c(C)[nH]c(C(=O)Cn2c(=O)oc3ccccc32)c1C`, which activity score is on record?
A: inconclusive: -60.7%

Q: With `C1=C(c2ccccc2)Nc2ccccc2N=C1c1ccccc1` as the compound, how does the activity score read?
A: inconclusive: -31.7%

Q: For `Cc1cc(NC(=O)/C=C/C(=O)N(c2ccccc2C)C(C(=O)NC2CCCC2)c2ccc(F)cc2)no1` (stereo not drawn), which activity score is on record?
A: inconclusive: -41.7%
